{"source": "the supplement of paper PMC8728848", "experiment_in_all_cases": "glycan array binding signal (z-score within array); higher = stronger binding", "conditions_in_all_cases": "glycan notation: IUPAC condensed, linker removed; mutation: R82H, R255H", "key": {"[1]": {"target": "Fuc(a1-2)Gal", "outline": "(§1)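 Columns mapping to the same glycan were averaged after glycan names were converted to IUPAC-condensed notation. The data come from 3228 arrays in the Consortium for Functional Glycomics database, limited to those with an available protein sequence. Binding is reported as a within-array Z-score averaged across arrays of one protein sequence and across linkers.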"}, "[2]": {"target": "Fuc(a1-2)Gal(b1-3)GalNAc", "outline": "as §1"}, "[3]": {"target": "Fuc(a1-2)Gal(b1-3)GalNAc(a1-3)[Fuc(a1-2)]Gal(b1-4)Glc", "outline": "as §1"}, "[4]": {"target": "Fuc(a1-2)Gal(b1-3)GalNAc(a1-3)[Fuc(a1-2)]Gal(b1-4)GlcNAc", "outline": "as §1"}, "[5]": {"target": "Fuc(a1-2)Gal(b1-3)GalNAc(b1-3)Gal", "outline": "as §1"}, "[6]": {"target": "Fuc(a1-2)Gal(b1-3)GalNAc(b1-3)Gal(a1-4)Gal(b1-4)Glc", "outline": "as §1"}, "[7]": {"target": "Fuc(a1-2)Gal(b1-3)GalNAc(b1-4)[Neu5Ac(a2-3)]Gal(b1-4)Glc", "outline": "as §1"}, "[8]": {"target": "Fuc(a1-2)Gal(b1-3)GlcNAc", "outline": "as §1"}, "[9]": {"target": "Fuc(a1-2)Gal(b1-3)GlcNAc(b1-2)Man(a1-3)[Fuc(a1-2)Gal(b1-3)GlcNAc(b1-2)Man(a1-6)]Man(b1-4)GlcNAc(b1-4)GlcNAc", "outline": "as §1"}, "[10]": {"target": "Fuc(a1-2)Gal(b1-3)GlcNAc(b1-2)Man(a1-3)[Fuc(a1-2)Gal(b1-3)GlcNAc(b1-2)Man(a1-6)]Man(b1-4)GlcNAc(b1-4)[Fuc(a1-6)]GlcNAc", "outline": "as §1"}, "[11]": {"target": "Fuc(a1-2)Gal(b1-3)GlcNAc(b1-3)Gal(b1-4)Glc", "outline": "as §1"}, "[12]": {"target": "Fuc(a1-2)Gal(b1-3)GlcNAc(b1-3)GalNAc", "outline": "as §1"}, "[13]": {"target": "Fuc(a1-2)Gal(b1-3)GlcNAc(b1-3)[Fuc(a1-2)Gal(b1-3)GlcNAc(b1-6)]GalNAc", "outline": "as §1"}, "[14]": {"target": "Fuc(a1-2)Gal(b1-3)GlcNAc(b1-3)[Gal(b1-4)GlcNAc(b1-6)]Gal(b1-4)Glc", "outline": "as §1"}, "[15]": {"target": "Fuc(a1-2)Gal(b1-3)GlcNAc(b1-3)[Neu5Ac(a2-6)Gal(b1-4)GlcNAc(b1-6)]Gal(b1-4)Glc", "outline": "as §1"}, "[16]": {"target": "Fuc(a1-2)Gal(b1-3)GlcNAc6S", "outline": "as §1"}, "[17]": {"target": "Fuc(a1-2)Gal(b1-3)[Fuc(a1-4)]GlcNAc", "outline": "as §1"}, "[18]": {"target": "Fuc(a1-2)Gal(b1-3)[Fuc(a1-4)]GlcNAc(b1-2)Man(a1-3)[Fuc(a1-2)Gal(b1-3)[Fuc(a1-4)]GlcNAc(b1-2)Man(a1-3)]Man(b1-4)GlcNAc(b1-4)GlcNAc", "outline": "as §1"}, "[19]": {"target": "Fuc(a1-2)Gal(b1-3)[Fuc(a1-4)]GlcNAc(b1-2)Man(a1-3)[Fuc(a1-2)Gal(b1-3)[Fuc(a1-4)]GlcNAc(b1-2)Man(a1-6)]Man(b1-4)GlcNAc(b1-4)[Fuc(a1-6)]GlcNAc(b1-4)[Fuc(a1-6)]GlcNAc", "outline": "as §1"}, "[20]": {"target": "Fuc(a1-2)Gal(b1-3)[Fuc(a1-4)]GlcNAc(b1-3)[Fuc(a1-3)[Gal(b1-4)]GlcNAc(b1-6)]Gal(b1-4)Glc", "outline": "as §1"}, "[21]": {"target": "Fuc(a1-2)Gal(b1-3)[Fuc(a1-4)]GlcNAc(b1-3)[Gal(b1-4)GlcNAc(b1-6)]Gal(b1-4)Glc", "outline": "as §1"}, "[22]": {"target": "Fuc(a1-2)Gal(b1-4)Fuc(a1-3)]GlcNAc(b1-2)Man(a1-3)[Fuc(a1-2)Gal(b1-4)[Fuc(a1-3)]GlcNAc(b1-2)Man(a1-6)]Man(b1-4)GlcNAc(b1-4)GlcNAc", "outline": "as §1"}, "[23]": {"target": "Fuc(a1-2)Gal(b1-4)Glc", "outline": "as §1"}, "[24]": {"target": "Fuc(a1-2)Gal(b1-4)Glc6S", "outline": "as §1"}, "[25]": {"target": "Fuc(a1-2)Gal(b1-4)GlcNAc", "outline": "as §1"}, "[26]": {"target": "Fuc(a1-2)Gal(b1-4)GlcNAc(b1-2)Man", "outline": "as §1"}, "[27]": {"target": "Fuc(a1-2)Gal(b1-4)GlcNAc(b1-2)Man(a1-3)[Fuc(a1-2)Gal(b1-4)GlcNAc(b1-2)Man(a1-6)]Man(b1-4)GlcNAc(b1-4)GlcNAc", "outline": "as §1"}, "[28]": {"target": "Fuc(a1-2)Gal(b1-4)GlcNAc(b1-2)Man(a1-3)[Fuc(a1-2)Gal(b1-4)GlcNAc(b1-2)Man(a1-6)]Man(b1-4)GlcNAc(b1-4)[Fuc(a1-6)]GlcNAc", "outline": "as §1"}, "[29]": {"target": "Fuc(a1-2)Gal(b1-4)GlcNAc(b1-2)[Fuc(a1-2)Gal(b1-4)GlcNAc(b1-4)]Man(a1-3)[Fuc(a1-2)Gal(b1-4)GlcNAc(b1-2)Man(a1-6)]Man(b1-4)GlcNAc(b1-4)GlcNAc", "outline": "as §1"}, "[30]": {"target": "Fuc(a1-2)Gal(b1-4)GlcNAc(b1-3)Gal(b1-4)GlcNAc", "outline": "as §1"}}, "note": "Some of the results follow."}
{"binder": "Gal 8 (Mus musculus), Q9JL15 (protein) MGGSHHHHHHGMASMLSLNNLQNIIYNPIIPYVGTITEQLKPGSLIVIRGHVPKDSERFQVDFQLGNSLKPRADVAFHFNPHFKRSSCIVCNTLTQEKWGWEEITYDMPFRKEKSFEIVFMVLKNKFQVAVNGRHVLLYAHRISPEQIDTVGIYGKVNIHSIGFRFSSASALPHTLGDLQSMETSALGLTQINRENIQKPGKLQLSLPFEARLNASMGPGRTVVIKGEVNTNARSFNVDLVAGKTRDIALHLNPHLNVKAFVRNSFLQDAWGEEERNITCFPFSSGMYFEMIIYCDVREFKVAINGVHSLEYKHRFKDLSSIDTLSVDGDIRLLDVRSW", "values": [{"measurement": "glycan array binding signal (z-score)", "setting": "[1]", "result": -0.23}, {"measurement": "glycan array binding signal (z-score)", "setting": "[2]", "result": -0.218}, {"measurement": "glycan array binding signal (z-score)", "setting": "[3]", "result": -0.263}, {"measurement": "glycan array binding signal (z-score)", "setting": "[4]", "result": -0.226}, {"measurement": "glycan array binding signal (z-score)", "setting": "[5]", "result": -0.165}, {"measurement": "glycan array binding signal (z-score)", "setting": "[6]", "result": -0.23}, {"measurement": "glycan array binding signal (z-score)", "setting": "[7]", "result": -0.246}, {"measurement": "glycan array binding signal (z-score)", "setting": "[8]", "result": -0.245}, {"measurement": "glycan array binding signal (z-score)", "setting": "[9]", "result": -0.097}, {"measurement": "glycan array binding signal (z-score)", "setting": "[10]", "result": -0.183}, {"measurement": "glycan array binding signal (z-score)", "setting": "[11]", "result": -0.259}, {"measurement": "glycan array binding signal (z-score)", "setting": "[12]", "result": -0.247}, {"measurement": "glycan array binding signal (z-score)", "setting": "[13]", "result": -0.223}, {"measurement": "glycan array binding signal (z-score)", "setting": "[14]", "result": 1.15}, {"measurement": "glycan array binding signal (z-score)", "setting": "[15]", "result": -0.271}, {"measurement": "glycan array binding signal (z-score)", "setting": "[16]", "result": -0.227}, {"measurement": "glycan array binding signal (z-score)", "setting": "[17]", "result": -0.249}, {"measurement": "glycan array binding signal (z-score)", "setting": "[18]", "result": -0.083}, {"measurement": "glycan array binding signal (z-score)", "setting": "[19]", "result": -0.216}, {"measurement": "glycan array binding signal (z-score)", "setting": "[20]", "result": -0.273}, {"measurement": "glycan array binding signal (z-score)", "setting": "[21]", "result": -0.275}, {"measurement": "glycan array binding signal (z-score)", "setting": "[22]", "result": -0.104}, {"measurement": "glycan array binding signal (z-score)", "setting": "[23]", "result": -0.211}, {"measurement": "glycan array binding signal (z-score)", "setting": "[24]", "result": -0.187}, {"measurement": "glycan array binding signal (z-score)", "setting": "[25]", "result": -0.253}, {"measurement": "glycan array binding signal (z-score)", "setting": "[26]", "result": -0.192}, {"measurement": "glycan array binding signal (z-score)", "setting": "[27]", "result": -0.257}, {"measurement": "glycan array binding signal (z-score)", "setting": "[28]", "result": -0.135}, {"measurement": "glycan array binding signal (z-score)", "setting": "[29]", "result": -0.162}, {"measurement": "glycan array binding signal (z-score)", "setting": "[30]", "result": -0.264}]}
